These results are taken from patent US20190382503A1 (published 2019).

The term Kd denotes the equilibrium constant for the complex coming apart. A word on the koff: it is the rate constant with which the complex falls apart. By kon is commonly meant the second-order rate constant of association.

Assay [1] addresses T1, recombinant human 5T4 extracellular domain (human, UniProt Q13641 32-355).
T1 construct: The entry starts at Met 1; also called Hu 5T4; 5T4 ECD
T1 sequence: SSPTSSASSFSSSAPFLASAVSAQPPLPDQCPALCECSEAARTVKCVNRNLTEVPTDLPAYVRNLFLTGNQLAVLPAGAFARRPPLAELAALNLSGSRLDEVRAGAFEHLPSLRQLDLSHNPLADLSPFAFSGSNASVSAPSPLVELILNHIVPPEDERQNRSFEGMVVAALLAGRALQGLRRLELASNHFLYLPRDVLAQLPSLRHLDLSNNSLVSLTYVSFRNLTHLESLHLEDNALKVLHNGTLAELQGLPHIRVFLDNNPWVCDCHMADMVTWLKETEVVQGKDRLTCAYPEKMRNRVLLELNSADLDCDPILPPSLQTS
Put plainly: SPR, Biacore T200, bispecific captured by anti-human IgG, monomeric ECD injected, 1:1 model. Here is the method:
(§1) Goat anti-human IgG F(ab′)2 fragment (Jackson ImmunoResearch) at 20 μg/mL in 10 mM sodium acetate (pH 4.5) was immobilized at a density of 2000 response units (RU) onto the flow cell of a CM5 research-grade sensor chip (GE) by standard amine coupling chemistry. Each bispecific variant at 200 nM in HBS-EP+ buffer was captured in the flow cell with the immobilized anti-human IgG at a flow rate of 50 μL/min for 60 sec to reach ˜500 RU response, leaving one flow cell surface unmodified as the reference. Following a 30 sec stabilization period, four different concentrations of each ECD (0, 20, 60, and 180 nM) were injected at 50 μL/min for either 120 sec followed by a 240 sec dissociation period (for 5T4) or 90 sec followed by a 180 sec dissociation period (for 4-1BB). Regeneration was achieved by duplicate injections of 10 mM glycine (pH 1.5) at a flow rate of 50 μL/min for 30 sec followed by HBS-EP+ buffer stabilization for 1 min.
(§2) Sensorgrams obtained from kinetic SPR measurements were analyzed by the double subtraction method. The signal from the reference flow cell was subtracted from the analyte binding response obtained from flow cells with immobilized or captured ligands. Buffer reference responses were then averaged from multiple injections. The averaged buffer reference responses were then subtracted from analyte binding responses, and the final double-referenced data were analyzed with Biacore T200 Evaluation software (2.0, GE), globally fitting data to derive kinetic parameters. All sensorgrams were fitted using a simple one-to-one binding model.
Background: SPR reads the build-up and loss of mass on a sensor chip optically.

Assay [2] addresses T2, recombinant human CD137 extracellular domain (human, UniProt Q07011 24-186).
T2 construct: The entry starts at Met 1; also called Hu CD137; 4-1BB ECD
The description is as above. Here is the method: as §1, §2

Assay [3] concerns the target T1, recombinant human 5T4 extracellular …. Put plainly: SPR, Biacore T-200, recombinant extracellular domain. How it is done: In addition to the stability assessments that were performed, the binding affinity of ALG.APV-006 and the phage derived variants were determined by Surface Plasmon Resonance (SPR) using a Biacore T-200, using the recombinant extracellular domains of human 5T4 and human CD137.

B1: ALG.APV-209 (bispecific antibody)
chain: EVQLLESGGGLVQPGGSLRLSCAASGFTFSHGSMYWVRQAPGKGLEWVSSISSGSGSTYYADSVKGRFTISHDNSKNTLYLQMNSLRAEDTAVYYCARSSYYGSYYSIDYWGQGTLVTVSSGGGGSGGGGSGGGGSGGGGSDIQMTQSPSSLSASVGDRVTITCRASQSISSYLNWYQQKPGKAPKLLIYAASSLQSGVPSRFSGSGSGTDFTLTISSLQPEDFATYYCQQYYDNLPTFGQGTKLEIKEPKSSDKTHTCPPCPAPEAAGAPSVFLFPPKPKDTLMISRTPEVTCVVVDVSHEDPEVKFNWYVDGVEVHNAKTKPREEQYNSTYRVVSVLTVLHQDWLNGKEYKCAVSNKALPAPIEKTISKAKGQPREPQVYTLPPSRDELTKNQVSLTCLVKGFYPSDIAVEWESNGQPENNYKTTPPVLDSDGSFFLYSKLTVDKSRWQQGNVFSCSVMHEALHNHYTQKSLSLSPGSGGGGSGGGGSGGGGSPS[letters of about 100 residues left out]YYGGYYSAWMDYWGQGTLVTVSSGGGGSGGGGSGGGGSGGGGSDIQMTQSPSSLSASVGDRVTITCRASQSISSFLNWYQQKPGKAPKLLIYAASSLQSGVPSRFSGSGSGTDFTLTISSLQPEDSATYYCQQTYGYLHTFGQGTKLEIKR
notes: scFv-Fc-scFv (ADAPTIR) homodimer, no stabilizing disulfide in the 1210 scFv; also called ALG.APV-222
In the case of B1, in assay [1], the Kd came to 0.066 µM, the off-rate (koff) came out at 0.00094 s⁻¹ and the kon is 14000 M⁻¹ s⁻¹. Moreover, in assay [2], the Kd stood at 0.059 µM, the koff was 0.033 s⁻¹ and the kon worked out at 560000 M⁻¹ s⁻¹.

B2: ALG.APV-179 (bispecific antibody)
chain: EVQLLESGGGLVQPGGSLRLSCAASGFTFSHGSMYWVRQAPGKGLEWVSSISSGSGSTYYADSVKGRFTISHDNSKNTLYLQMNSLRAEDTAVYYCARSSYYGSYYSIDYWGQGTLVTVSSGGGGSGGGGSGGGGSGGGGSDIQMTQSPSSLSASVGDRVTITCRASQSISSYLNWYQQKPGKAPKLLIYAASSLQSGVPSRFSGSGSGTDFTLTISSLQPEDFATYYCQQYYDNLPTFGQGTKLEIKSSEPKSSDKTHTCPPCPAPEAAGAPSVFLFPPKPKDTLMISRTPEVTCVVVDVSHEDPEVKFNWYVDGVEVHNAKTKPREEQYNSTYRVVSVLTVLHQDWLNGKEYKCAVSNKALPAPIEKTISKAKGQPREPQVYTLPPSRDELTKNQVSLTCLVKGFYPSDIAVEWESNGQPENNYKTTPPVLDSDGSFFLYSKLTVDKSRWQQGNVFSCSVMHEALHNHYTQKSLSLSPGSGGGGSGGGGSGGGGSPS[letters of about 100 residues left out]YYGGYYSAWMDYWGQGTLVTVSSGGGGSGGGGSGGGGSGGGGSDIQMTQSPSSLSASVGDRVTITCRASQSISSFLNWYQQKPGKAPKLLIYAASSLQSGVPSRFSGSGSGTDFTLTISSLQPEDSATYYCQQTYGYLHTFGQGTKLEIKR
notes: scFv-Fc-scFv (ADAPTIR) homodimer
On to B2, for which, in assay [1], the Kd came out at 0.029 µM, the koff amounted to 0.00062 s⁻¹ and the kon worked out at 22000 M⁻¹ s⁻¹. For the same molecule, in assay [2], the Kd came out at 0.071 µM, the koff was determined as 0.028 s⁻¹ and the kon was determined as 390000 M⁻¹ s⁻¹.

B3: ALG.APV-178 (bispecific antibody)
chain: EVQLLESGGGLVQPGGSLRLSCAASGFTFSHGSMYWVRQAPGKGLEWVSSISSGSGSTYYADSVKGRFTISHDNSKNTLYLQMNSLRAEDTAVYYCARSSYYGSYYSIDYWGQGTLVTVSSGGGGSGGGGSGGGGSGGGGSDIQMTQSPSSLSASVGDRVTITCRASQSISSYLNWYQQKPGKAPKLLIYAASSLQSGVPSRFSGSGSGTDFTLTISSLQPEDFATYYCQQYYDNLPTFGQGTKLEIKSSEPKSSDKTHTCPPCPAPEAAGAPSVFLFPPKPKDTLMISRTPEVTCVVVDVSHEDPEVKFNWYVDGVEVHNAKTKPREEQYNSTYRVVSVLTVLHQDWLNGKEYKCAVSNKALPAPIEKTISKAKGQPREPQVYTLPPSRDELTKNQVSLTCLVKGFYPSDIAVEWESNGQPENNYKTTPPVLDSDGSFFLYSKLTVDKSRWQQGNVFSCSVMHEALHNHYTQKSLSLSPGSGGGGSGGGGSGGGGSPS[letters of about 100 residues left out]YYGGYYSAWMDYWGQGTLVTVSSGGGGSGGGGSGGGGSGGGGSDIQMTQSPSSLSASVGDRVTITCRASQSISSYLNWYQQKPGKAPKLLIYAASSLQSGVPSRFSGSGSGTDFTLTISSLQPEDSATYYCQQTYGYLHTFGQGTKLEIKR
notes: as for B2
Turning to B3, in assay [1], the Kd stood at 0.106 µM, the koff came out at 0.0025 s⁻¹ and the kon is 23000 M⁻¹ s⁻¹. Further, in assay [2], the Kd worked out at 0.07 µM, the off-rate constant (koff) came out at 0.027 s⁻¹ and the kon is 390000 M⁻¹ s⁻¹.

B4: ALG.APV-006 (bispecific antibody)
chain: EVQLLESGGGLVQPGGSLRLSCAASGFTFSYGSMYWVRQAPGKGLEWVSSISSGSGSTYYADSVKGRFTISRDNSKNTLYLQMNSLRAEDTAVYYCARSSYYGSYYSIDYWGQGTLVTVSSGGGGSGGGGSGGGGSGGGGSDIQMTQSPSSLSASVGDRVTITCRASQSISSYLNWYQQKPGKAPKLLIYAASSLQSGVPSRFSGSGSGTDFTLTISSLQPEDFATYYCQQYYDNLPTFGQGTKLEIKSSSEPKSSDKTHTCPPCPAPEAAGAPSVFLFPPKPKDTLMISRTPEVTCVVVDVSHEDPEVKFNWYVDGVEVHNAKTKPREEQYNSTYRVVSVLTVLHQDWLNGKEYKCAVSNKALPAPIEKTISKAKGQPREPQVYTLPPSRDELTKNQVSLTCLVKGFYPSDIAVEWESNGQPENNYKTTPPVLDSDGSFFLYSKLTVDKSRWQQGNVFSCSVMHEALHNHYTQKSLSLSPGSGGGGSGGGGSGGGGSPS[letters of about 100 residues left out]YYGGYYSAWMDYWGQGTLVTVSSGGGGSGGGGSGGGGSGGGGSDIQMTQSPSSLSASVGDRVTITCRASQSISSYLNWYQQKPGKAPKLLIYAASSLQSGVPSRFSGSGSGTDFTLTISSLQPEDFATYYCQQTYGYLHTFGQGTKLEIKS
notes: scFv-Fc-scFv (ADAPTIR) homodimer: 1618 anti-4-1BB scFv - Fc - 1210 anti-5T4 scFv; also called 1618 VHVL -Fc-1210 VHVL; parent construct
As for B4, the results for the Kd in assay [3], in assay [1] and in assay [2] were 0.149 µM, 0.109 µM and 0.21 µM, respectively. Besides, the koff turned out to be 0.0026 s⁻¹ in assay [1] and 0.059 s⁻¹ in assay [2]. In addition, the figures for the kon in assay [1] and in assay [2] were 24000 M⁻¹ s⁻¹ and 280000 M⁻¹ s⁻¹, respectively.
